Results taken from the supplement of paper PMC4967469.

Legend:
AICAR = compound: NC(=O)c1ncn([C@@H]2O[C@H](CO)[C@@H](O)[C@H]2O)c1N [AICAR]; assay: Viability of human cancer cell lines after 72 h of drug (GDSC screen); details: top dose 2000 µM; top dose inferred
Protocol: (§1)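 Human cancer cell lines in 384-well plates, medium with 10% serum, drug for 72 h over a 256-fold dose range (nine 2-fold or five 4-fold steps up to the top dose). Adherent lines were fixed and stained with the nucleic acid dye Syto60, suspension lines read with resazurin; signal relative to control wells, capped at 0 and 100%. One two-parameter sigmoid per drug and line, fitted in a mixed model over all curves with the slope shared within a line.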

AKT inhibitor VIII = compound: O=c1[nH]c2ccccc2n1C1CCN(Cc2ccc(-c3[nH]c4cc5ncnc5cc4nc3-c3ccccc3)cc2)CC1 [AKT inhibitor VIII]; assay: as above; details: top dose inferred
Protocol: as §1

[1] = top dose 2.56 µM, screen: GDSC drug entry 171
[2] = top dose 10.24 µM, screen: GDSC drug entry 228

Row | Cell Line | AUC (AICAR) | IC50 (AICAR) | AUC (AKT inhibitor VIII; [1]) | IC50 (AKT inhibitor VIII; [1]) | AUC (AKT inhibitor VIII; [2]) | IC50 (AKT inhibitor VIII; [2])
1 | AGS (stomach, adherent) | 0.943 | > 2000 µM | 0.928 | > 2.56 µM | 0.943 | > 10.2 µM
2 | AM-38 (glioma, semi-adherent) | 0.761 | 724 µM | 0.986 | > 2.56 µM | 0.824 | 6.24 µM
3 | AMO-1 (haematopoietic neoplasm, suspension) | 0.753 | 585 µM | 0.972 | > 2.56 µM | 0.827 | 5.09 µM
4 | AN3-CA (endometrium, adherent) | 0.902 | > 2000 µM | 0.79 | 1.26 µM | 0.826 | 7.01 µM
5 | ARH-77 (myeloma, suspension) | 0.889 | > 2000 µM | 0.966 | > 2.56 µM | 0.734 | 2.88 µM
6 | ASH-3 (thyroid, adherent) | 0.91 | > 2000 µM | 0.937 | > 2.56 µM | 0.988 | > 10.2 µM
7 | AU565 (breast, adherent) | 0.637 | 312 µM | 0.768 | 1.06 µM | 0.748 | 3.63 µM
8 | AsPC-1 (pancreas, adherent) | 0.796 | 1870 µM | 0.944 | > 2.56 µM | 0.777 | 7.72 µM
9 | BB65-RCC (kidney, adherent) | 0.831 | 1530 µM | 0.936 | > 2.56 µM | 0.954 | > 10.2 µM
10 | BE2-M17 (neuroblastoma, adherent) | 0.842 | 1460 µM | 0.986 | > 2.56 µM | 0.968 | > 10.2 µM
11 | BE-13 (lymphoblastic leukaemia, suspension) | 0.661 | 338 µM | 0.951 | > 2.56 µM | 0.752 | 3.19 µM
12 | BFTC-905 (bladder, adherent) | 0.866 | 1380 µM | 0.937 | > 2.56 µM | 0.939 | > 10.2 µM
13 | BHT-101 (thyroid, adherent) | 0.9 | > 2000 µM | 0.881 | > 2.56 µM | 0.896 | > 10.2 µM
14 | BICR10 (head and neck, adherent) | 0.804 | 1190 µM | 0.843 | 2.25 µM | 0.982 | > 10.2 µM

The IC50 comes from the fitted curve, where viability falls to half of the control; where the fit passes the top or lowest dose, that dose stands as a limit. For AUC the same curve is integrated over the 256-fold range of doses and scaled to a fraction; values near 1 show little effect. Where the top dose is marked as inferred, it is not printed in the source and was worked back from the curve model. For part of these data: Drugs with an entry number were screened twice under separate entries, and the two screens often disagree.
